Here are results for 90 compounds from PMC4336329 (PLoS ONE, 2015).

The structures appear in SMILES notation. Screen size: about 310,000 compounds; about 14,000 (4.5%) showed an effect of 50% or more. The effect is printed as a negative number. The list shows a part of the results.
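Note: peak tail current of the secondary pulse compared with the same well before compound.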

The target in the assay is human ether-à-go-go-related gene (hERG) potassium channel (human, UniProt Q12809). Kind of assay: primary screen, population patch clamp on CHO cells stably expressing hERG.
human ether-à-go-go-related gene (hERG) potassium channel, sequence (Q12809 whole entry, looked up): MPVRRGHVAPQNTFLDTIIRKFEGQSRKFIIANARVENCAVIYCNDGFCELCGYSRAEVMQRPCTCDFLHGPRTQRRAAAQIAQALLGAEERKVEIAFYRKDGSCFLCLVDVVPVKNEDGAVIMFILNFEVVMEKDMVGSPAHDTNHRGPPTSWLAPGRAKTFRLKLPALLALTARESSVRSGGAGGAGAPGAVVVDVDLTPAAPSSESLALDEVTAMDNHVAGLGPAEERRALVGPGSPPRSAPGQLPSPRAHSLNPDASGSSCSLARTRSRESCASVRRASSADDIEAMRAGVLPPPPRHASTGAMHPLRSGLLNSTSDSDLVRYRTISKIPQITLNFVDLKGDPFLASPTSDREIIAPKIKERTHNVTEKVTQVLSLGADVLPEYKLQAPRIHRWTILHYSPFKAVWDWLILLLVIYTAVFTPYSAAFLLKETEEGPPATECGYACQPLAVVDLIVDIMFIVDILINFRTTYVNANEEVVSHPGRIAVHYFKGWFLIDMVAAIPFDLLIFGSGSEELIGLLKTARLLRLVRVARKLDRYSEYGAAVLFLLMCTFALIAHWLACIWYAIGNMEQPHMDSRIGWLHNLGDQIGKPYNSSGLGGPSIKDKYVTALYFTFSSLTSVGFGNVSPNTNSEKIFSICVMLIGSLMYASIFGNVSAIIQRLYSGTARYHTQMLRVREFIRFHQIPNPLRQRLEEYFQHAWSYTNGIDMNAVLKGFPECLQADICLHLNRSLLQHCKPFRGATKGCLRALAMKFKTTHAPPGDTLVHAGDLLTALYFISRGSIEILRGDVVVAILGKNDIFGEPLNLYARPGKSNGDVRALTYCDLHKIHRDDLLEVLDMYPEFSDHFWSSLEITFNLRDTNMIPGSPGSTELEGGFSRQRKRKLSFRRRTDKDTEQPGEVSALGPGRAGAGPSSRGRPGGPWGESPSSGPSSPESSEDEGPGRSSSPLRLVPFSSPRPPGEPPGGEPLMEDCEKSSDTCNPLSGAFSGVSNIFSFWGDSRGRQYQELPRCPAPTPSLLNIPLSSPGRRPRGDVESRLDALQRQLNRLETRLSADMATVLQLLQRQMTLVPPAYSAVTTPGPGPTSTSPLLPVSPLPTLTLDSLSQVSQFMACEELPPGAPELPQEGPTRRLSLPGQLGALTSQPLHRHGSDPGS
In the case of `Cn1c(Cc2csc(N)n2)nnc1SCC(=O)NC1CCCCC1`, the “hERG current change (%, negative = inhibition) at 10uM” value is on record as -4.67%.
In the case of `CN(C)C(=O)c1nc2ccc(Cl)cn2c1CNCc1ccccc1OC(F)(F)F` it was -2.88%; in that of `Nc1ccc2nn(-c3ccc(F)cc3)nc2c1`, 15.6%; in that of `Clc1ccccc1-c1csc(Nc2cccnc2)n1`, -3.14%.
In the case of `Cc1ccc(Nc2cnn(C34CC5CC(CC(CC(=O)O)(C5)C3)C4)c(=O)c2Cl)cc1C` it was 8.31%; in that of `COc1ccc(Cc2nnc(SCC(=O)Nc3ccc(C)c(Cl)c3)[nH]c2=O)cc1`, -1.35%.
In the case of `O=C(NCCCN=C1NS(=O)(=O)c2ccccc21)c1ccc(Cl)cc1` it was 8.24%; in that of `C/C(Cn1cnc([N+](=O)[O-])n1)=N\NC(=O)c1ccccc1F`, 16.4%; in that of `O=C(O)C1OC(C(=O)O)C2C1C(F)(F)C2(F)F` (stereo not drawn), 14.3%.
As to `CCCCN(CC)C(=O)CSc1nc2ccccc2c(=O)n1CC1COc2ccccc2O1` (stereo not drawn), the “hERG current change (%, negative = inhibition) at 10uM” value is -37.6%.
On to `CS(=O)(=O)N1CC(C(=O)O)Oc2ccc(CC(=O)O)cc21` (stereo not drawn), for which the “hERG current change (%, negative = inhibition) at 10uM” value is 22%.
In the case of `S=C(NCCSCc1ccc(Cl)cc1)Nc1ccccc1` it was 1.83%; in that of `Cn1cnnc1SCC(=O)Nc1ccccc1C(=O)NC1CC1`, -2.68%; in that of `C=CCNC(=S)NNC(=O)c1ccc(OCC)cc1`, 2.31%.
Turning to `COc1cccc(CN2CC(C(=O)NCc3cccc(N4CCCC4)c3)CCC2=O)c1` (stereo not drawn), the “hERG current change (%, negative = inhibition) at 10uM” value was -5.08%.
In the case of `CCC12CN(S(=O)(=O)c3ccc(C)cc3)CC(CC)(CN(S(=O)(=O)c3ccc(C)cc3)C1)C2=O` it was 2.03%; in that of `COc1ccc(C(=O)Nc2sc(C(=O)N(C)C)c(C)c2C#N)cc1[N+](=O)[O-]`, 8.47%; in that of `COc1ccc(NC(C)=O)cc1S(=O)(=O)N1CCN(Cc2cccs2)CC1`, -3.53%.
In the case of `O=C(N/N=C/c1c(Cl)[nH]c2ccccc12)c1ccc2c(c1)OCCO2` it was -15.9%.
In the case of `CC(=O)N(CCN1CCOCC1)Cc1cc2cc3c(cc2nc1Cl)OCO3` it was 17.8%; in that of `Cc1ccc(Cl)cc1NC(=S)N(C)N`, -8.24%; in that of `Cn1c(/C=C/c2ccc(Cl)cc2Cl)c([N+](=O)[O-])c(=O)n(C)c1=O`, 16.7%.
As for `CC(=O)c1ccc(C(=O)Nc2nnc(-c3ccc(Cl)cc3)o2)cc1`, the “hERG current change (%, negative = inhibition) at 10uM” value stood at 4.1%.
In the case of `S=C(Nc1ccccc1)Nc1ccc(Br)cn1`, the “hERG current change (%, negative = inhibition) at 10uM” value is 12.3%.
In the case of `CC(=O)c1ccc(NC(=O)CCNS(=O)(=O)c2ccccc2F)cc1` it was 11.9%; in that of `CCOC(=O)C1=C(C)NC(=O)NC1c1ccc(Cl)cc1Cl` (stereo not drawn), -14.7%; in that of `CCCNC(=O)N1[C@H]2CC[C@@H]1C(C(=O)OC)=C(c1ccc(F)cc1OCc1ccccc1)C2`, -23.3%.
In the case of `COc1ccc(N2CCN(C(=O)CCC(=O)N3CC(C)Oc4ccccc43)CC2)cc1` (stereo not drawn) it was -46.2%; in that of `COc1cccc(/C=N/n2c(C)nc3ccccc32)c1OC`, 6.97%; in that of `CCOC(=O)Nc1ccc(NS(=O)(=O)c2ccc(C)cc2)cc1`, -3.87%.
In the case of `CCCN(CCC)C(=O)C(CCC(=O)[O-])NC(=O)c1ccccc1.[Na+]` (stereo not drawn) it was 4.04%; in that of `NS(=O)(=O)c1cccc(NC(=O)Cc2ccc(Cl)c(Cl)c2)c1`, 6.09%.
Take `Cc1ccc(Cn2c(CN(C)Cc3ccccc3)nc3c2c(=O)n(C)c(=O)n3C)cc1`: the “hERG current change (%, negative = inhibition) at 10uM” value is recorded as -21.5%.
Turning to `CN(Cc1ccccc1)C(=O)c1ccc([N+](=O)[O-])o1`, the “hERG current change (%, negative = inhibition) at 10uM” value came to 1.49%.
In the case of `O=C(CN1CCN(c2ccc(F)cc2)CC1)NC(=O)NCc1ccco1` it was 17%.
In the case of `Cc1ccc(/C=N/n2c(-c3cccs3)n[nH]c2=S)cc1` it was 10.3%; in that of `Br.CC(=O)Nc1ccc(-c2csc(N/N=C\c3ccncc3)n2)cc1`, 4.43%; in that of `COc1cccc(N2CCN(CC(=O)c3c(C)[nH]c4ccccc34)CC2)c1`, -27.9%.
With `C=CCOC(=O)C1=C(C)NC(=O)NC1c1cc(Cl)cc(Cl)c1OC` (stereo not drawn), the “hERG current change (%, negative = inhibition) at 10uM” value is 2.16%.
In the case of `CN(C)c1ccc(S(=O)(=O)NCC(=O)OCC(=O)c2ccc[nH]2)cc1[N+](=O)[O-]` it was -11.7%; in that of `CC(=O)Nc1ccccc1NC(=O)CN(C)S(=O)(=O)c1ccc(C)cc1`, -16.5%.
In the case of `CC(C)(C)SCCNC(=O)c1ccc(Cl)c(S(=O)(=O)N2CCOCC2)c1` it was -6.74%.
In the case of `O=C(NCc1ccccc1Cl)c1cnccc1C(F)(F)F` it was 1.46%; in that of `O=[N+]([O-])c1ccc(OCCCCN2CCCCC2)cc1`, -69.4%.
Regarding `Cc1ccc(NC2(C(F)(F)F)N=C(c3ccccc3)NC2=O)nc1` (stereo not drawn), the “hERG current change (%, negative = inhibition) at 10uM” value came to 18.4%.
In the case of `Cc1cccn2cc(COc3cccc([N+](=O)[O-])c3)nc12` it was 9.46%; in that of `O=C(CCc1ccncc1)N1CCCC(Nc2ccc(F)c(F)c2)C1` (stereo not drawn), -56%.
With `O=C(COc1cccc(NC(=O)c2ccco2)c1)c1ccc(F)cc1`, the “hERG current change (%, negative = inhibition) at 10uM” value is on record as -34.4%.
In the case of `CCN(CC)C(=O)Cn1cc(C(=O)C(=O)N2CCCc3ccccc32)c2ccccc21` it was -2.47%; in that of `COc1ccc(OC)c(S(=O)(=O)N(C)CC(=O)N2CCCCC2)c1`, -5.42%.
In the case of `Cc1ccc(S(=O)(=O)CC(C)(O)C(=O)Nc2cccc(C(F)(F)F)c2)cc1` (stereo not drawn) it was 1.06%; in that of `Cc1ccc(OCC(=O)NNC(=O)C2CCCO2)c(C)c1` (stereo not drawn), 2.64%.
In the case of `COc1cccc(Cn2cc(N)cn2)c1` it was 21.4%.
Take `Cn1c(=O)[nH]c2c(Cl)nccc21`: the “hERG current change (%, negative = inhibition) at 10uM” value is recorded as 33.9%.
In the case of `O=C1CCC([N+](=O)[O-])C(c2cccc(Br)c2)N1` (stereo not drawn) it was -6.63%; in that of `O=C(c1cc(F)ccc1F)C1CCCN(C(=O)c2cccs2)C1` (stereo not drawn), 22.5%.
In the case of `O=C(O)c1cc2n(n1)C(C(F)(F)F)CC(c1ccccc1)N2` (stereo not drawn) it was 16%; in that of `CCCC(=O)Nc1ccc2nc(SCC(=O)N3CCCC3)sc2c1`, 2.52%; in that of `Cc1cccc(CSc2ccc(S(=O)(=O)N3CCCC3)cn2)c1`, 5.24%.
In the case of `CC(NC(=O)C1CCC(CNC(=O)[C@@H]2Cc3ccccc3CN2)CC1)c1ccccc1` (stereo partly drawn) it was -4.23%.
For the compound `O=P1(Nn2cnnc2)C=C(c2ccccc2)OC(c2ccccc2)=C1`, the “hERG current change (%, negative = inhibition) at 10uM” value was -20.8%.
In the case of `O=C(Nc1cnccn1)c1ccncc1` it was -5.96%; in that of `CCOc1ccc(Nc2n[nH]c(=S)s2)cc1`, 14.8%; in that of `C=C(C)COc1ccc(-c2nc(N)ncc2-c2ccc(OC)c(OC)c2)c(O)c1`, 14.5%.
In the case of `CCn1c(Cc2ccccc2)nnc1SCC(=O)Nc1ccc2c(c1)OCO2` it was 2.66%; in that of `CCCCNC(=S)NNC(=O)c1c(Cl)c(C)nn1C`, 25.6%; in that of `COc1ccc(-c2cc(C(=O)OCc3ccccn3)c3ccccc3n2)cc1`, 24.3%.
In the case of `COCC(=O)NCCc1nc(-c2ccccc2)cs1` it was 4.61%.
As for `CC(C)(CS(=O)(=O)[O-])NC(=O)CC[N+](C)(C)CCO`, the “hERG current change (%, negative = inhibition) at 10uM” value is recorded as 10.5%.
In the case of `CCNc1sc(C(=O)OCC)c(N)c1C#N` it was 6.96%; in that of `COc1ccc(NC(=O)CS(=O)(=O)c2cn(CC(=O)N3CCOCC3)c3ccccc23)cc1OC`, 15.5%.
In the case of `Cc1[nH]c2ccccc2c1Cc1n[nH]c(=S)o1` it was 16.7%.
For `COc1cccc(NC(=O)N2CCC(NC(=O)C(Cc3ccccc3F)NC(C)=O)CC2)c1` (stereo not drawn), the “hERG current change (%, negative = inhibition) at 10uM” value is 7.04%.
In the case of `c1coc(-c2nn3c(Cn4nnc5ccccc54)nnc3s2)c1` it was -10.1%.
On to `COc1ccc2oc(=O)c(C(=O)NC3CCCCCC3)cc2c1`, for which the “hERG current change (%, negative = inhibition) at 10uM” value was found to be 14.1%.
Regarding `COCCSc1ccccc1C(=O)Nc1ccncc1`, the “hERG current change (%, negative = inhibition) at 10uM” value turned out to be 16.4%.
In the case of `CCOC(=O)c1sc(NC(=O)CSc2nc3ccccc3s2)c(C(=O)OCC)c1C` it was 14.9%; in that of `CCN(CC(=O)NCc1ccc(Cl)cc1)C(=O)CSc1cccc(C(F)(F)F)c1`, -23.3%.
With `COc1cccc(CCc2nnc(CCC(=O)NCCC3CCCCO3)o2)c1` (stereo not drawn), the “hERG current change (%, negative = inhibition) at 10uM” value stood at 9.16%.
In the case of `Cc1ccc(C(=O)O/N=C(\N)c2ccc(Br)cc2)cc1` it was 12.3%.
In the case of `COc1cc2cc(C(=O)N3CCN(Cc4ccc5c(c4)OCO5)CC3)c(=O)oc2cc1OC` it was -0.572%; in that of `O=C(Cn1c(C(=O)NCc2ccco2)cc2sccc21)c1ccccc1`, 16.5%; in that of `CCOc1ccc(C(=O)COC(=O)C2CCN(c3ccc(C(F)(F)F)cn3)CC2)cc1`, -43.3%.
In the case of `CCc1c(O)nc(SCc2nc3ccccc3c(=O)[nH]2)[nH]c1=O` it was 25.3%; in that of `CCN(c1ccccc1)S(=O)(=O)c1ccc(C(=O)N2CC(C)CC(C)C2)cc1` (stereo not drawn), -30.3%.
Take `CCN(CC)c1ccc(/C=N/n2nnnc2N)c(O)c1`: the “hERG current change (%, negative = inhibition) at 10uM” value worked out at 14.6%.
Take `O=C(Cc1ccccc1)N/N=C/c1ccccn1`: the “hERG current change (%, negative = inhibition) at 10uM” value amounted to 14.7%.
In the case of `COCCN(C(=O)Cc1ccc(OC)c(OC)c1)c1nc(-c2cc(OC)ccc2OC)cs1` it was 19.8%; in that of `O=C(Cc1cccc2ccccc12)Nc1cc(Cl)ccc1C(=O)O`, 15.7%; in that of `Cc1ccc(S(=O)(=O)CCc2nnc(N)s2)cc1C`, 9.4%.
